Our source for the cell count values is the supplement of paper PMC4604168 (melanoma cell lines).

Structures are written as SMILES. The list shows a part of the results. Repeats are few or missing, and single values can be far off.

Test systems include WM115; WM1716; WM1745; WM3526; WM3619; WM451Lu.
What all share (assay): cell count relative to DMSO control; melanoma cells; higher = more viable cells
Conditions in all cases: library dose: low library concentration; 72 h
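Note: cell number obtained by counting DAPI-stained nuclei in high-throughput microscope images with image analysis software, screen run in 1,536-well plates.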

Regarding `Cn1sc(=O)n(Cc2ccccc2)c1=O` + N.N.[Cl][Pt][Cl] [cisplatin] (first compound 0.4 µM, partner dose 1.6 µM), the cell count in the assay with WM115 was found to be 94.4%; in the assay with WM1716, 85.1%; in the assay with WM1745, 92.4%; with WM3526 it was 88.3%; in the assay on WM3619, 97.8%; with WM451Lu, 101%.
In the case of `Cn1cnc2c(F)c(Nc3ccc(Br)cc3Cl)c(C(=O)NOCCO)cc21` [selumetinib] + O=C(Oc1ccc([N+](=O)[O-])cc1)N1CCC(C(O)(c2ccc3c(c2)OCO3)c2ccc3c(c2)OCO3)CC1 [JZL184] (first compound 0.015 µM, partner dose 1 µM), the cell count amounted to 95.6% in the assay on WM115; 100% in the assay on WM1716; 106% with WM1745; 87.1% with WM3526; 86.4% with WM3619; 109% with WM451Lu.
As to `O=C(Nc1cc(C(F)(F)F)cc(C(F)(F)F)c1)c1cc(Cl)ccc1O` + C[As](C)SC[C@H](NC(=O)CC[C@H](N)C(=O)O)C(=O)NCC(=O)O [Darinaparsin] (first compound 0.016 µM, partner dose 0.4 µM), the cell count in the assay on WM115 amounted to 106%; with WM1716 it was 107%; in the assay with WM1745 it was 97.7%; in the assay with WM3526 it was 88.2%; in the assay with WM3619 it was 113%; with WM451Lu, 104%.
Regarding `COc1cc([C@@H]2c3cc4c(cc3[C@@H](O[C@@H]3O[C@@H]5CO[C@@H](C)O[C@H]5[C@H](O)[C@H]3O)[C@H]3COC(=O)[C@H]23)OCO4)cc(OC)c1O` [etoposide] + Cn1cc(C2=C(c3cn(C4CCN(Cc5ccccn5)CC4)c4ccccc34)C(=O)NC2=O)c2ccccc21 [Enzastaurin] (first compound 0.02 µM, partner dose 0.8 µM), the cell count amounted to 100% with WM115; 94.9% in the assay with WM1716; 106% in the assay with WM1745; 102% in the assay on WM3526; 101% in the assay with WM3619; 133% in the assay on WM451Lu.
As to `OCCn1cc(-c2cnc3nnn(Cc4ccc5ncccc5c4)c3n2)cn1` + C/C(O)=C(\C#N)C(=O)Nc1cc(Br)ccc1Br [LFM-A13] (first compound 1 µM, partner dose 2 µM), the cell count with WM115 turned out to be 97.2%; with WM1716, 102%; in the assay with WM1745 it was 94.4%; in the assay with WM3526, 91.3%; in the assay on WM3619, 88.4%; with WM451Lu, 107%.
On to `Cc1cc(Nc2cc(N3CCN(C)CC3)nc(/C=C/c3ccccc3)n2)n[nH]1` + C[As](C)SC[C@H](NC(=O)CC[C@H](N)C(=O)O)C(=O)NCC(=O)O [Darinaparsin] (first compound 0.04 µM, partner dose 0.4 µM), for which the cell count in the assay with WM115 turned out to be 79.9%; with WM1716 it was 98.4%; in the assay on WM1745 it was 78.7%; with WM3526 it was 88%; in the assay with WM3619 it was 124%; in the assay on WM451Lu it was 90.8%.
For `C=C(c1ccc(C(=O)O)cc1)c1cc2c(cc1C)C(C)(C)CCC2(C)C` [Bexarotene] + Cc1cc(SCc2sc(-c3ccc(C(F)(F)F)c(F)c3)nc2C)ccc1OCC(=O)O [GW0742] (first compound 2 µM, partner dose 2 µM), the cell count with WM115 came to 101%; in the assay with WM1716 it was 86.7%; with WM1745, 94.9%; with WM3526 it was 86.1%; in the assay with WM3619 it was 107%; with WM451Lu, 82.1%.
For `C=CCNC1=C2C[C@@H](C)C[C@H](OC)[C@H](O)[C@@H](C)/C=C(\C)[C@H](OC(N)=O)[C@@H](OC)/C=C\C=C(/C)C(=O)NC(=CC1=O)C2=O` [Tanespimycin] + Cc1cc(SCc2sc(-c3ccc(C(F)(F)F)c(F)c3)nc2C)ccc1OCC(=O)O [GW0742] (first compound 0.002 µM, partner dose 2 µM), the cell count in the assay with WM115 is 93.4%; in the assay on WM1716, 103%; with WM1745, 90.8%; in the assay with WM3526 it was 103%; with WM3619, 92.3%; in the assay on WM451Lu, 180%.
`COc1cc2c(Oc3ccc4[nH]c(C)cc4c3F)ncnc2cc1OCCCN1CCCC1` [cediranib] + Cc1cc(SCc2sc(-c3ccc(C(F)(F)F)c(F)c3)nc2C)ccc1OCC(=O)O [GW0742] (first compound 0.4 µM, partner dose 2 µM): the cell count turned out to be 106% in the assay on WM115; 109% with WM1716; 83.4% in the assay on WM1745; 117% in the assay with WM3526; 105% with WM3619; 99.7% with WM451Lu.
Regarding `Cc1ccc(Nc2nccc(N(C)c3ccc4c(C)n(C)nc4c3)n2)cc1S(N)(=O)=O` [Pazopanib] + Cn1cc(C2=C(c3cn(C4CCN(Cc5ccccn5)CC4)c4ccccc34)C(=O)NC2=O)c2ccccc21 [Enzastaurin] (first compound 0.4 µM, partner dose 0.8 µM), the cell count was determined as 104% in the assay on WM115; 89.7% in the assay with WM1716; 87.3% in the assay on WM1745; 91.3% in the assay with WM3526; 107% in the assay with WM3619; 105% in the assay with WM451Lu.
For the compound `Nc1nc(F)nc2c1ncn2[C@@H]1O[C@H](CO)[C@@H](O)[C@@H]1O` [fludarabine] + Cc1cc(SCc2sc(-c3ccc(C(F)(F)F)c(F)c3)nc2C)ccc1OCC(=O)O [GW0742] (first compound 0.2 µM, partner dose 2 µM), the cell count worked out at 90.3% with WM115; 113% in the assay on WM1716; 104% with WM1745; 45.6% in the assay with WM3526; 102% in the assay with WM3619; 53.2% in the assay with WM451Lu.
On to `CCCCCCCCCCCCCCCCCCOP(=O)([O-])OC1CC[N+](C)(C)CC1` [Perifosine] + Cc1cc(SCc2sc(-c3ccc(C(F)(F)F)c(F)c3)nc2C)ccc1OCC(=O)O [GW0742] (first compound 0.4 µM, partner dose 2 µM), for which the cell count with WM115 came out at 98.7%; in the assay with WM1716, 88%; in the assay on WM1745 it was 83.6%; in the assay with WM3526, 90.5%; with WM3619, 95.7%; in the assay with WM451Lu it was 100%.
Consider `CCCCCCCCCCCCCCCCCCOP(=O)([O-])OC1CC[N+](C)(C)CC1` [Perifosine] + O=C(Oc1ccc([N+](=O)[O-])cc1)N1CCC(C(O)(c2ccc3c(c2)OCO3)c2ccc3c(c2)OCO3)CC1 [JZL184] (first compound 0.4 µM, partner dose 1 µM), for which the cell count in the assay on WM115 is 101%; in the assay with WM1716, 96.4%; with WM1745, 120%; with WM3526, 92%; in the assay on WM3619, 137%; in the assay on WM451Lu it was 105%.
As for `CO[C@@H]1[C@H](N(C)C(=O)c2ccccc2)C[C@H]2O[C@]1(C)n1c3ccccc3c3c4c(c5c6ccccc6n2c5c31)C(=O)NC4` [Midostaurin] + Cc1cc(SCc2sc(-c3ccc(C(F)(F)F)c(F)c3)nc2C)ccc1OCC(=O)O [GW0742] (first compound 0.08 µM, partner dose 2 µM), the cell count in the assay on WM115 was 83.3%; in the assay on WM1716 it was 70.3%; in the assay on WM1745, 85.1%; with WM3526, 117%; in the assay with WM3619, 97.2%; in the assay on WM451Lu, 107%.
Regarding `Cc1cc(Nc2cc(N3CCN(C)CC3)nc(/C=C/c3ccccc3)n2)n[nH]1` + C/C(O)=C(\C#N)C(=O)Nc1cc(Br)ccc1Br [LFM-A13] (first compound 0.04 µM, partner dose 2 µM), the cell count worked out at 87.9% with WM115; 100% in the assay on WM1716; 93.2% in the assay on WM1745; 95.2% in the assay with WM3526; 96.5% in the assay with WM3619; 86.9% in the assay with WM451Lu.
Take `Nc1cccc2c1CN(C1CCC(=O)NC1=O)C2=O` (centres undefined) [lenalidomide] + O=C(Oc1ccc([N+](=O)[O-])cc1)N1CCC(C(O)(c2ccc3c(c2)OCO3)c2ccc3c(c2)OCO3)CC1 [JZL184] (first compound 1 µM, partner dose 1 µM): the cell count in the assay with WM115 came to 107%; with WM1716, 95.3%; in the assay on WM1745, 90.9%; in the assay on WM3526, 92.9%; with WM3619 it was 104%; with WM451Lu, 114%.
For the compound `CC[C@]1(O)C[C@H]2CN(CCc3c([nH]c4ccccc34)[C@@](C(=O)OC)(c3cc4c(cc3OC)N(C=O)[C@H]3[C@@](O)(C(=O)OC)[C@H](OC(C)=O)[C@]5(CC)C=CCN6CC[C@]43[C@@H]65)C2)C1` [vincristine] + N.N.[Cl][Pt][Cl] [cisplatin] (first compound 0.0001 µM, partner dose 1.6 µM), the cell count was 98.3% in the assay on WM115; 99.4% in the assay with WM1716; 108% with WM1745; 96.8% in the assay on WM3526; 108% with WM3619; 96.3% in the assay on WM451Lu.
As for `O=C(Nc1cc(C(F)(F)F)cc(C(F)(F)F)c1)c1cc(Cl)ccc1O` + Cc1cc(SCc2sc(-c3ccc(C(F)(F)F)c(F)c3)nc2C)ccc1OCC(=O)O [GW0742] (first compound 0.016 µM, partner dose 2 µM), the cell count worked out at 95.7% with WM115; 109% with WM1716; 94.4% in the assay with WM1745; 92.7% in the assay on WM3526; 94.6% in the assay on WM3619; 92.1% in the assay on WM451Lu.
`COc1cc([C@@H]2c3cc4c(cc3[C@@H](O[C@@H]3O[C@@H]5CO[C@@H](C)O[C@H]5[C@H](O)[C@H]3O)[C@H]3COC(=O)[C@H]23)OCO4)cc(OC)c1O` [etoposide] + C[C@]12O[C@H](C[C@]1(O)CO)n1c3ccccc3c3c4c(c5c6ccccc6n2c5c31)CNC4=O [Lestaurtinib] (first compound 0.02 µM, partner dose 0.004 µM): the cell count in the assay with WM115 is 87.6%; with WM1716, 95.5%; with WM1745 it was 96.9%; in the assay on WM3526, 104%; in the assay on WM3619, 106%; in the assay with WM451Lu it was 96.1%.
For the compound `Cc1cc(SCc2sc(-c3ccc(C(F)(F)F)c(F)c3)nc2C)ccc1OCC(=O)O` + O=C(O)C(=O)Nc1sc2c(c1C(=O)O)CCNC2 [TCS401] (first compound 2 µM, partner dose 1.66667 µM), the cell count in the assay on WM115 came out at 102%; in the assay with WM1716, 112%; with WM1745 it was 91.9%; in the assay on WM3526, 102%; with WM3619, 82.5%; in the assay on WM451Lu, 115%.
Consider `CC1(C)CCC(c2ccc(Cl)cc2)=C(CN2CCN(c3ccc(C(=O)NS(=O)(=O)c4ccc(N[C@H](CCN5CCOCC5)CSc5ccccc5)c(S(=O)(=O)C(F)(F)F)c4)cc3)CC2)C1` + O=C(Oc1ccc([N+](=O)[O-])cc1)N1CCC(C(O)(c2ccc3c(c2)OCO3)c2ccc3c(c2)OCO3)CC1 [JZL184] (first compound 0.4 µM, partner dose 1 µM), for which the cell count with WM115 was found to be 79.5%; with WM1716, 78.3%; with WM1745, 10.8%; in the assay on WM3526, 87.9%; in the assay with WM3619, 82.9%; in the assay on WM451Lu, 49.7%.
With `COc1ccc(C2=N[C@@H](c3ccc(Cl)cc3)[C@@H](c3ccc(Cl)cc3)N2C(=O)N2CCNC(=O)C2)c(OC(C)C)c1` [Nutlin-3] + C[C@]12O[C@H](C[C@]1(O)CO)n1c3ccccc3c3c4c(c5c6ccccc6n2c5c31)CNC4=O [Lestaurtinib] (first compound 0.1 µM, partner dose 0.004 µM), the cell count in the assay on WM115 was determined as 90.3%; with WM1716, 82.2%; in the assay with WM1745 it was 89.6%; with WM3526, 93.5%; with WM3619, 91.2%; with WM451Lu it was 98.3%.
As for `O=c1[nH]nc(Sc2ncc([N+](=O)[O-])s2)n1-c1ccc2c(c1)OCCO2` + Cn1cc(C2=C(c3cn(C4CCN(Cc5ccccn5)CC4)c4ccccc34)C(=O)NC2=O)c2ccccc21 [Enzastaurin] (first compound 0.2 µM, partner dose 0.8 µM), the cell count in the assay on WM115 was found to be 114%; in the assay with WM1716, 106%; with WM1745, 99.3%; in the assay on WM3526 it was 104%; with WM3619 it was 96.3%; with WM451Lu, 110%.
For the compound `Cc1cc(SCc2sc(-c3ccc(C(F)(F)F)c(F)c3)nc2C)ccc1OCC(=O)O` + CC(C)CCN1c2nc(Nc3cc(F)c(O)c(F)c3)ncc2N(C)C(=O)C1C [BID1870] (first compound 2 µM, partner dose 0.2 µM), the cell count in the assay on WM115 was determined as 87.5%; in the assay on WM1716, 99.3%; in the assay with WM1745, 81.7%; in the assay on WM3526, 107%; with WM3619, 121%; in the assay with WM451Lu it was 103%.
